# The campaign covered roughly 370,000 compounds. About 150 (0.041%) were called active. The inconclusive results got no clear call from the source; some entries with a clear call stand among them for comparison. The call rests on the fitted dose curve; in most records, active means well fitted inhibition curve with a large enough effect; inconclusive means small, poorly fitted or top-dose-only effect; inactive means flat fitted curve, though single readings scatter. No potency is given beside an inconclusive call; the fits are too rough.
# Target: Beta-lactamase (Escherichia coli (strain K12)) (UniProt P00811)
# Chain of UniProt P00811 (P00811 whole entry, looked up): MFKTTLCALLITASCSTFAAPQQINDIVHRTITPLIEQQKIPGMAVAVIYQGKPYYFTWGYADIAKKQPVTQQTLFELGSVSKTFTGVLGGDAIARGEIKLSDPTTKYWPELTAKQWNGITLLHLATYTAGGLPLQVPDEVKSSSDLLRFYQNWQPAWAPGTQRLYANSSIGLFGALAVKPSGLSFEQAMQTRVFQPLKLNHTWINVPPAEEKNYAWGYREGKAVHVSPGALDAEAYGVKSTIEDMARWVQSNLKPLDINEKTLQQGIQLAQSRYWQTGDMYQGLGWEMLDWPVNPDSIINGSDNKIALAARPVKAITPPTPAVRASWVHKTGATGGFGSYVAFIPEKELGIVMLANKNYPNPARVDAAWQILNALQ
# Experiment: qHTS Inhibitors of AmpC Beta-Lactamase (assay with detergent); further: nearly all actives have a fitted effect of over 25% in size
# Conditions: AmpC hydrolysis of nitrocefin, absorbance 480 nm, 0.01% Triton; series mostly up to 114 µM
# In short: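 AmpC (5.3 nM in the dispensed reagent) in 20 mM phosphate pH 7.0 with 0.01% (detergent screen) or 0.0001% Triton X-100 was preincubated with compounds for 15 min at room temperature. Nitrocefin was then added from an 800 uM solution, and hydrolysis was followed at 480 nm.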
# Potency means the concentration at half of the fitted maximal effect; tags describe the fitted curve by direction and shape.
row,SMILES,Potency
1,COc1ccc(S(=O)(=O)N(C)c2ccc(OC(=O)C(C)Oc3ccc(F)cc3)cc2)cc1 (stereo unspecified),"inconclusive [inhibitor, full curve, poor fit]"
2,COc1cc(C(=O)NC2=NCCS2)cc(OC)c1OC,"inconclusive [inhibitor, full curve, poor fit]"
3,Fc1ccc(-c2csc(NC3=NCCC3)n2)cc1,"inconclusive [inhibitor, full curve, poor fit]"
4,Cc1cc(C)nc(NC(=O)/C=C/c2ccc3c(c2)OCO3)c1,"inconclusive [inhibitor, full curve]"
5,CC(=O)Nc1cccc(NC(=O)C2CCCN2C(=O)Nc2ccc(Cl)cc2)c1 (stereo unspecified),"inconclusive [inhibitor, full curve, poor fit]"
6,CC12CCC(=O)N1C(C(=O)Nc1cc(Cl)ccc1N1CCCC1)CS2 (stereo unspecified),inactive
7,O=C(Nc1ccccc1N1CCCCC1)C1CCN(C(=O)c2ccc(Cl)cc2)CC1,inactive
8,Cc1ccc2nc(SCC(=O)N/N=C/c3ccco3)cc(C)c2c1,"inconclusive [inhibitor, single point]"
9,COc1ccccc1-c1sc2ccccc2c1-c1ccc(C(C)=O)cc1,"inconclusive [inhibitor, partial curve]"
10,COc1ccc(-c2c(C(F)(F)F)oc3cc(OCC(=O)Nc4ccccc4C(F)(F)F)ccc3c2=O)cc1OC,"inconclusive [inhibitor, full curve, poor fit]"
11,Cc1ccc(-c2noc(CCC(=O)Nc3ccc4c(c3)OCO4)n2)cc1,"inconclusive [inhibitor, partial curve, poor fit]"
12,O=C(NC(=S)Nc1cccc2cc(O)ccc12)c1ccco1,inactive
13,COc1ccc(C2(c3ccc(OC)cc3)NC(=O)N(CC(=O)NC3(C#N)CCCC3)C2=O)cc1,"inconclusive [inhibitor, full curve, poor fit]"
14,CC(=O)Nc1ccc(N2CCN(C(=O)c3cccs3)CC2)cc1,"inconclusive [inhibitor, full curve, poor fit]"
15,COc1cccc(C(=O)NCc2cn3ccsc3n2)c1,"inconclusive [inhibitor, full curve]"
16,CCn1c(/N=C/c2c[nH]c3ccccc23)nc2ccccc21,"inconclusive [inhibitor, full curve, poor fit]"
17,COCCn1c(Cc2ccccc2)nnc1SCC(=O)NC(C)C,"inconclusive [inhibitor, partial curve, poor fit]"
18,CCN(CC)CCN1c2ccccc2Sc2ccc3ccccc3c21,inactive
19,Cc1cccc(NC(=S)N/N=C/c2c[nH]c3ccccc23)c1,inactive
20,O=C(NCCNC(=O)c1ccccn1)c1ccccc1,"inconclusive [inhibitor, full curve, poor fit]"
21,CC(C)[C@H](NC(N)=O)C(=O)Nc1ccc2c(c1)CCC2,"inconclusive [inhibitor, full curve, poor fit]"

row,SMILES,Potency
1,COC(=O)C1=C(C)NC(=O)CC1c1cc(Br)ccc1F (stereo unspecified),"inconclusive [inhibitor, full curve]"
2,CCC(=O)Nc1c(S(=O)(=O)c2ccccc2)c2nc3ccccc3nc2n1C(C)c1ccccc1 (stereo unspecified),"inconclusive [inhibitor, full curve, poor fit]"
3,COc1cc(OC)c(OC)cc1/C=N/Nc1ncnc2c1[nH]c1ccc(C)cc12,"inconclusive [inhibitor, single point]"
4,Cc1ccc(C2CC(=O)Nc3cc4c(cc32)OCCO4)cc1Br (stereo unspecified),inactive
5,O=C(COc1ccccc1)Nc1ccccc1N1CCCCC1,"inconclusive [inhibitor, full curve, poor fit]"
6,CCOC(=O)CCCNC(=O)COC(=O)c1cccc(C)c1O,"inconclusive [inhibitor, full curve, poor fit]"
7,COc1ccc(NC(=O)CN(C)S(=O)(=O)c2cccc3nsnc23)cc1OC,"inconclusive [inhibitor, partial curve]"
8,COc1ccc(CNC(=O)CN(Cc2ccco2)C(=O)CCC(=O)Nc2ccccn2)cc1,"inconclusive [inhibitor, full curve, poor fit]"
9,CCN(CC)S(=O)(=O)c1cccc(-c2nnc(SCC(=O)c3cc(C)n(C)c3C)o2)c1,"inconclusive [inhibitor, full curve]"
10,CCc1ccccc1NC(=O)[C@@H]1CCC(=O)N1C1OC(=O)c2ccccc21 (stereo partly specified),"inconclusive [inhibitor, full curve, poor fit]"
11,Cc1cccc(Nc2nnc(SCC(=O)Nc3ccccc3[N+](=O)[O-])s2)c1C,"inconclusive [inhibitor, full curve, poor fit]"
12,O=C(O)C1CCCN1S(=O)(=O)c1ccc2c(c1)CCC2 (stereo unspecified),"inconclusive [inhibitor, partial curve, poor fit]"
13,COc1cc(CNCCN2CCOCC2)ccc1OCc1ccc(Cl)cc1Cl,inactive
14,CSc1nnc(-c2cnccn2)n1CCCN1CCCC1=O,inactive
15,Cc1ccc(-c2nc3sc4c(N)ncnc4c3c3c2CCCC3)cc1,"inconclusive [inhibitor, full curve]"
16,Cc1ccc(NC(=O)C(C)OC(=O)CCN=C2NS(=O)(=O)c3ccccc32)cc1 (stereo unspecified),"inconclusive [inhibitor, full curve, poor fit]"
17,C/C(CC(=O)Nc1cccc(F)c1)=N\NC(=O)C(=O)NC1CCCCC1,"inconclusive [inhibitor, full curve]"
18,O=C(Nc1cc(Cl)ccc1Cl)c1ccc(OC(=O)c2ccco2)cc1,"inconclusive [inhibitor, single point]"
19,COc1ccc(C(C)=O)cc1CC(=O)NCCCn1ccnc1,"inconclusive [inhibitor, full curve, poor fit]"
20,COc1ccc(C)cc1NC(=O)CSc1nnc2ccc(-c3cccnc3)nn12,"inconclusive [inhibitor, partial curve, poor fit]"

# — PubChem BioAssay AID485294 (National Center for Advancing Translational Sciences (NCATS), 2010)
